Source: PubChem BioAssay AID624417 (National Center for Advancing Translational Sciences (NCATS), 2012)
About 6,400 (1.6%) of roughly 410,000 compounds were called active. The inconclusive results got no clear call from the source; some entries with a clear call stand among them for comparison. The call rests on the fitted dose curve; in most records, active means well fitted inhibition curve with a large enough effect; inconclusive means small, poorly fitted or top-dose-only effect; inactive means no such curve, though single readings can be large or run the other way. Potencies of inconclusive entries are doubtful fits and often do not repeat.

Each molecule was assayed against Glucagon-like peptide 1 receptor (Homo sapiens) (UniProt P43220) (assay: qHTS of GLP-1 Receptor Inverse Agonists (Inhibition Mode)). Settings: HEK293 GLP-1R CRE-luciferase, luminescence, 24 h, GLP-1R form is constitutively active; activity change, negative = inhibition: at 38.3 µM (top of the series) unless noted.
Sequence of UniProt P43220 (P43220 whole entry, looked up): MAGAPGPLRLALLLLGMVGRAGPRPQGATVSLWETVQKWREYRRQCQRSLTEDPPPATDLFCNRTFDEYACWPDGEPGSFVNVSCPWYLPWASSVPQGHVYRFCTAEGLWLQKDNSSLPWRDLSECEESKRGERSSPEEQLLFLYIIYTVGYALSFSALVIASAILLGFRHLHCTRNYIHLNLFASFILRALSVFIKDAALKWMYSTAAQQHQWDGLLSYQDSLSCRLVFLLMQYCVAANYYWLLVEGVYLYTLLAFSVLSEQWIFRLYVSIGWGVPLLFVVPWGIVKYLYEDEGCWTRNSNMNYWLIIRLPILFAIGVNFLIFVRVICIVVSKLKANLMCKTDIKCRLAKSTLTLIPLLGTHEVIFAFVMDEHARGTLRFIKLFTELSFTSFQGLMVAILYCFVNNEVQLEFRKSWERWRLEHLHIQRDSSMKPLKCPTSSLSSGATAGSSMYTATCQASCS
Summary of the method: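 Assay principle: reduced luminescence from a cAMP-responsive reporter in HEK293 cells co-expressing a constitutively active GLP-1R. Conditions: 24 hr compound incubation, 37 deg C, 5% CO2.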
Further: nearly all actives have a fitted effect of over 55% in size.
On the % scale 0 is the no-effect control and ±100 the full control effect; potency means the concentration at half of the fitted maximal effect; tags describe the fitted curve by direction and shape.

Potency, inconclusive:
CCCc1cc(C(=O)Nc2cc(OC)ccc2OC)cs1 15.8 µM [inhibitor, single point]
COc1ccc(OC2CCN(S(=O)(=O)c3ccc(F)cc3)CC2)cc1 10 µM [inhibitor, partial curve, poor fit]
CC(=O)c1ccc(N2CCN(C(=O)C3CCN(S(=O)(=O)c4c(C)noc4/C=C/c4ccccc4F)CC3)CC2)cc1 6.31 µM [inhibitor, partial curve, poor fit]
COc1ccc(C/C(N)=N/OC(=O)C(c2ccccc2)c2ccccc2)cc1OC 11.2 µM [inhibitor, partial curve, poor fit]
CC(=O)c1cccc(NC(=S)NCCc2ccc(F)cc2)c1 28.2 µM [inhibitor, single point]
Cc1ccn2c(Cc3ccccc3)c(-c3ccc(F)cc3)nc2c1 8.91 µM [inhibitor, partial curve, poor fit]
Cc1ccc(NC(=O)c2sc3ncnc(N(C)C4CCCCC4)c3c2C)cc1 25.1 µM [inhibitor, single point]
Cc1ccc(CONC(=O)c2ccccc2)cc1 28.2 µM [inhibitor, single point]
COC(=O)[C@@H](NS(=O)(=O)c1cc(Br)ccc1Br)C(C)C 14.1 µM [inhibitor, partial curve, poor fit]
CCCCC(C(=O)NC(C)(C)C)N(Cc1ccccc1Cl)C(=O)c1snc(C(N)=O)c1N (stereo unspecified) 8.91 µM [inhibitor, partial curve, poor fit]
COc1cccc(C(=O)Nc2ccc(S(=O)(=O)N(Cc3ccccc3)c3ccccc3)cc2)c1 5.62 µM [inhibitor, partial curve, poor fit]
CCOC(=O)c1nnn(CC(=O)N2N=C(c3cc(C)ccc3C)CC2c2ccc(OC)cc2)c1C(=O)OCC (stereo unspecified) 5.01 µM [inhibitor, partial curve, poor fit]
Cc1ccc(F)cc1-c1nc(NC(C)C)nc2cc(-c3ccccc3)sc12 3.16 µM [inhibitor, partial curve, poor fit]
Cc1cc(Br)ccc1NC(=O)CCSc1ccccc1 11.2 µM [inhibitor, single point]
CCOc1ccc2nc(N(CCCN(C)C)C(=O)c3ccc(S(=O)(=O)N4CCCC4)cc3)sc2c1 10 µM [inhibitor, partial curve, poor fit]
COc1cc(NC(=O)CC2C(=O)N(c3cccc(C)c3)C(=O)N2Cc2cccs2)cc(OC)c1 (stereo unspecified) 28.2 µM [inhibitor, single point]
COc1ccc(C(CNC(=O)Cc2ccc(-c3ccccc3)cc2)N(C)C)cc1 (stereo unspecified) 31.6 µM [inhibitor, partial curve, poor fit]
CCOC(=O)Cn1c(=O)n(C2CCCC2)c(=O)c2ccccc21 8.91 µM [inhibitor, partial curve, poor fit]
COc1ccccc1NC(=O)N1CCC(c2nc3cc(C)c(C)cc3[nH]2)CC1 3.16 µM [inhibitor, partial curve]
CC(C)C[C@H](NC(=O)N1CCn2c1nc1ccccc12)C(=O)NCc1ccc2c(c1)OCO2 12.6 µM [inhibitor, partial curve, poor fit]
CN1CCN(c2cc3c(c4c2[nH]c2ccccc24)C(=O)CC(C)(C)C3)CC1 12.6 µM [inhibitor, partial curve, poor fit]
CCCCCNC(=O)C(C1CC1)n1c(=O)c(-c2ccccc2)nc2ccccc21 (stereo unspecified) 11.2 µM [inhibitor, partial curve, poor fit]
Cc1nn(-c2ccccc2)nc1CNC(=O)c1ncoc1-c1ccccc1 31.6 µM [inhibitor, partial curve, poor fit]
O=S(=O)(c1ccc(F)c(F)c1)N1CCCCCCC1 10 µM [inhibitor, single point]
CN1CCN(c2nc3ccccc3nc2NS(=O)(=O)c2ccc(Br)cc2)CC1 6.31 µM [inhibitor, partial curve, poor fit]
Cc1ccc2nc(-c3ccc(NC(=O)c4cccnc4)cc3)oc2c1 10 µM [inhibitor, partial curve, poor fit]
Cc1onc(-c2ccccc2Cl)c1C(=O)N(Cc1nc(-c2ccccc2)no1)C1CCCCC1 10 µM [inhibitor, partial curve]
CCN(C(=O)CSc1cc(-c2ccccc2)c2ccc(OC)cc2n1)C1CCS(=O)(=O)C1 (stereo unspecified) 0.794 µM [inhibitor, full curve, poor fit]
COc1ccc(Cl)cc1NC(=O)CSC1=NN2CCCC(=O)N=C2S1 10 µM [inhibitor, partial curve, poor fit]
O=C(Nc1cccc(C(F)(F)F)c1)Nc1ccc(N2CCCC2)c(S(=O)(=O)Nc2ccccc2Cl)c1 2.24 µM [inhibitor, full curve, poor fit]
O=C(CNc1cccc(S(=O)(=O)N2CCCC2)c1)Nc1ccc(F)c(F)c1 10 µM [inhibitor, partial curve, poor fit]
O=C(c1c(F)cccc1F)N(Cc1cccs1)C1CCCC1 12.6 µM [inhibitor, single point]
COc1ccc(C(C(=O)NC(C)(C)C)n2c(=O)c(-c3ccccc3)nc3ccccc32)cc1 (stereo unspecified) 14.1 µM [inhibitor, partial curve, poor fit]
Cc1cccc(C)c1OCC(O)CNC(C)(C)C (stereo unspecified) 20 µM [inhibitor, single point]
C=CCN(c1ccccc1OC)S(=O)(=O)c1ccc(Cl)c(C(=O)Nc2ccc(N3CCOCC3)cc2)c1 5.62 µM [inhibitor, partial curve, poor fit]
CCN(CCCNC(=O)c1ccc(N2CCCC2=O)cc1)c1cccc(C)c1 11.2 µM [inhibitor, partial curve, poor fit]
CCC(Oc1ccccc1)C(=O)Nc1nc2c(s1)C(=O)CC(C)(C)C2 (stereo unspecified) 11.2 µM [inhibitor, partial curve, poor fit]
O=C(COC(=O)c1c2c(nc3ccccc13)CCCC2)Nc1ccc2c(c1)OCO2 31.6 µM [inhibitor, partial curve, poor fit]
C[C@@H]1CN([C@@H](C)CO)C(=O)CCCn2nncc2CO[C@H]1CN(C)Cc1ccc(Oc2ccccc2)cc1 28.2 µM [inhibitor, single point]
COc1ccc(Cl)cc1NC(=O)CN(C)C(=O)c1ccc2c(c1)CC(c1ccccc1)OC2=O (stereo unspecified) 11.2 µM [inhibitor, single point]
O=C(c1ccc([N+](=O)[O-])c(CS(=O)(=O)c2ccc(Cl)cc2)c1)N1CCCCC1 8.91 µM [inhibitor, single point]
O=C(Nc1ccncc1)C1CCN(S(=O)(=O)c2ccc(Cl)c(C(F)(F)F)c2)CC1 10 µM [inhibitor, partial curve, poor fit]
CC(C)(C)OC(=O)CN1c2cccc3cccc(c23)S1(=O)=O 11.2 µM [inhibitor, partial curve]
C=CCN=C1NN=C(c2cc(C)n(CCOC)c2C)CS1 2.51 µM [inhibitor, full curve]
CCc1cc[n+](/C(C(=S)Nc2cccc(C)c2)=C(/[O-])c2ccc(C)c([N+](=O)[O-])c2)cc1 28.2 µM [inhibitor, single point]

Potency, active:
O=C(CN1CCN(C(c2ccccc2)c2ccccc2)CC1)N1N=CCC1c1ccccc1 (stereo unspecified) 11.2 µM
CCCCn1c(SCC(=O)N2c3ccccc3Sc3ccccc32)nc2c1c(=O)n(C)c(=O)n2C 11.2 µM

Potency, inactive:
COc1ccc(NC(=O)CN2C(=O)CSc3ccc(S(=O)(=O)N4CCCC4)cc32)cc1OC

Activity change, negative = inhibition, inactive:
O=C(CSc1nnc2ccccn12)N1CCc2ccccc21 -15.7%
Cc1ccc(C2CCN(C(=O)Nc3ccc(C)c(C)c3)C2)cc1 (stereo unspecified) 11%
CCN(CC)C(=O)Cn1cc(S(=O)(=O)CC(=O)Nc2ccc3c(c2)OCCO3)c2ccccc21 29.1%
CC(C)Oc1ccc(CNC(=O)Cn2c(-c3cccs3)cc3ccccc32)cc1 11.7%
O=C(COc1cccnc1[N+](=O)[O-])Nc1cc(Cl)ccc1Cl 15.1%
COC(=O)c1ccc(SCC(=O)NC2CCCCC2)c([N+](=O)[O-])c1 2.71%
CCCCNC(=O)c1cnn2c(C)c(Cc3c(F)cccc3Cl)c(C)nc12 1.21%
COc1cccc(NC(=O)c2cc3c(=O)n(C)c4ccccc4c3n2C)c1 11.2%
Cc1ccccc1Cn1c(CN2CCC(C(=O)NCCN(C)C)CC2)cc2ccccc21 -8.88%
CC[C@]12c3[nH]c4cc(-c5ccco5)ccc4c3CCN1C(=O)[C@@H](CC(=O)NCCCOC)C[C@@H]2C(=O)N1CCN(C(=O)C2CC2)CC1 -2.2%
COc1cc(/C=N/Nc2cccc3cccnc23)cc(OC)c1O -13.4%
COc1ccc(C(=O)N2CCN(Cc3ccc4c(c3)OCO4)CC2)cc1OC -5.2%

Activity change, negative = inhibition, inconclusive:
CC1=C/C(=N\NC(=S)NCc2ccccc2)CC1 -93.1% [inhibitor] [at 7.66 µM]
